Laboratory results: the supplement of paper PMC13380429

What was measured:
Conditions in all cases: 72 h
Caco-2 [1] = assay: drug sensitivity score (DSS) for viability; higher = more toxic; extreme values may be limits of the assay
Vero E6 [2] = assay: as above
HepG2 [3] = assay: as above
U2OS [4] = assay: as above
Calu-3 [5] = assay: as above
Caco-2 [6] = assay: relative viability EC50 (midpoint between 100% and the lowest measured viability); higher = less toxic
Vero E6 [7] = assay: as above
HepG2 [8] = assay: as above
U2OS [9] = assay: as above
Calu-3 [10] = assay: as above
Caco-2 [11] = assay: cell viability relative to DMSO; higher = less toxic
Vero E6 [12] = assay: as above
HepG2 [13] = assay: as above
U2OS [14] = assay: as above
Calu-3 [15] = assay: as above

Cc1cccc(CCN2CCC(C(=O)c3ccc(NS(C)(=O)=O)cc3)CC2)n1 [E-4031]
Conditions	drug sensitivity score	relative viability EC50 [µM]
Caco-2 [1]	0	–
Caco-2 [6]	–	> 10
Calu-3 [5]	0	–
Calu-3 [10]	–	> 10
HepG2 [3]	0	–
HepG2 [8]	–	> 10
U2OS [4]	0	–
U2OS [9]	–	> 10
Vero E6 [2]	0	–
Vero E6 [7]	–	> 10

cell viability [%]
Conditions	Caco-2 [11]	Calu-3 [15]	HepG2 [13]	U2OS [14]	Vero E6 [12]
1 nM	93.9	91.1	89.5	99.1	94.7
10 nM	96.1	95.6	97.5	98.3	97.1
100 nM	97.4	82.8	96.9	101	91.5
1000 nM	89	93.1	107	97.3	97
10000 nM	99.6	95.2	100	98.6	106
